Measurements reported in PubChem BioAssay AID686978 (National Center for Advancing Translational Sciences (NCATS), 2013).
Values joined by “and” are separate entries in the source; they are usually repeats but may differ in a detail not shown here. Identical values can stand only once. About 64,000 (15%) of roughly 420,000 compounds were called active. Inconclusive means that the source gave no clear call. Such entries were picked first, then a sample of the others. Calls follow the shape of the dose curve; as a rule, active = well fitted inhibition curve with a large enough effect; inconclusive = small, poorly fitted or top-dose-only effect; inactive = flat fitted curve, though single readings scatter. A potency beside an inconclusive call is a rough fit, not a confirmed value.

Assay: qHTS for Inhibitors of human tyrosyl-DNA phosphodiesterase 1 (TDP1): qHTS in cells in absence of CPT; also: nearly all actives have a fitted effect of over 55% in size
Details: DT40 Tdp1-/- hTDP1 cells, no CPT, ATP luminescence, 48 h; activity change, negative = growth inhibition: at 46.2 µM (top of the series) unless noted
Method in brief: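 Stably hTDP1-transfected Tdp1-null chicken DT40 cells were treated with library compounds minus camptothecin and grown for at least 48 hr at 37 °C, after which cellular ATP was quantified by luminescence.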
% is scaled to controls: 0 for no effect and ±100 for the full control effect; potency is read from the fitted curve at half-maximal effect; tags tell the direction and shape of the fitted curve.

Structure (SMILES)	Potency	activity change, negative = growth inhibition
Cc1c(N=Nc2c(O)n(-c3ccc(Br)cc3)c(=O)[nH]c2=O)c(=O)n(-c2ccccc2)n1C	inconclusive: 29.1 µM [inhibitor, single point]	–
C1CCC2CCCCC2C1 (stereo not given)	inactive	–
C[C@H]1C[C@H](C)C(=O)[C@@H]([C@H](O)CC2CC(=O)NC(=O)C2)C1	active: 0.0841 µM	–
COc1cccc(-n2cnc3scc(-c4cccs4)c3c2=O)c1	inconclusive: 20.6 µM [inhibitor, single point]	–
COCc1ccc(CN2CCCC(C(=O)c3sccc3C)C2)o1 (stereo not given)	inconclusive: 9.2 µM [inhibitor, partial curve]	–
COC(=O)C1=C(c2cc3ccccc3o2)C[C@@H]2CC[C@H]1N2C(=O)N1CCC(C)CC1	active: 2.91 µM	–
COc1ccc(N=Cc2c(O)n(CC3CCCO3)c(=O)[nH]c2=O)cc1 (stereo not given)	inactive	–
COC(=O)C1=C(c2cccc(OCc3ccccc3)c2)C[C@@H]2CC[C@H]1N2C(=O)NCCCc1ccccc1	inconclusive: 16.4 µM [inhibitor, single point]	–
O=C(Nc1ccc2oc(-c3cccnc3)nc2c1)c1ccc(-c2cccc(Cl)c2)o1	active: 7.31 µM	–
O=C(CN1CCN(c2ccccc2)CC1)Nc1ccccc1C(=O)NCCc1ccccc1	inconclusive: 29.1 µM [inhibitor, single point]	–
Cc1nc2ccc(Cl)cc2c(=O)n1-c1ccccc1Cl	inactive	–
CC(C)CCn1c(N2CCN(c3cccc(Cl)c3)CC2)nc2c1c(=O)[nH]c(=O)n2C	inconclusive: 29.1 µM [inhibitor, single point]	–
C[C@]12CC[C@H]3[C@@H](CCC4=CC(=O)CC[C@@H]43)[C@@H]1CC[C@@H]2O	inconclusive: 29.9 µM [inhibitor, single point] and inconclusive: 26.6 µM [inhibitor, single point] and inconclusive: 23.1 µM [inhibitor, single point]	–
CC[n+]1c(SC)ccc2cc(OC)ccc21	active: 16.4 µM	–
Cc1ccsc1C(=O)C1CCCN(Cc2cc3ccccc3o2)C1 (stereo not given)	inconclusive: 18.4 µM [inhibitor, partial curve]	–
Cc1ccc(S(=O)(=O)N(C)C/N=C(\N)N[N+](=O)[O-])cc1	inactive	–
COC(=O)C1=Nc2ccccc2/C1=C\c1c(O)n(-c2ccc(OC)cc2)c(=O)[nH]c1=O	–	inconclusive: -31% [inhibitor]
COCCCn1c(N)c(C(=O)Nc2ccccc2)c2nc3ccccc3nc21	inconclusive: 29.1 µM [inhibitor, single point]	–
COc1ccc(C2=NCC(=S)Nc3ccc(Cl)cc32)cc1Cl	active: 20.6 µM	–
Cc1nn(Cc2ccccc2)c(Cl)c1C(=O)OC(C)C(=O)Nc1ccc(F)cc1Cl (stereo not given)	inconclusive: 16.4 µM [inhibitor, single point]	–
COC(=O)CC1(CC(=O)OC)C(=O)N(c2ccccc2)C(=O)N(c2ccccc2)C1=O	inactive	–
CCCCOP(=O)(c1ccc(N(C)C)cc1)C(O)c1c(Cl)cccc1Cl (stereo not given)	inconclusive: 14.6 µM [inhibitor, partial curve]	–

Structure (SMILES)	Potency	activity change, negative = growth inhibition
O=P1(Oc2ccccc2)C[C@@H](O)[C@@H](O)[C@H](COCc2ccccc2)O1 (stereo not given in full)	inactive	–
Nc1c(C(=O)OC2CCCCC2)c2nc3ccccc3nc2n1CC1CCCO1 (stereo not given)	active: 16.4 µM	–
CC(=O)O[C@@H]1/C=C/[C@](C)(O)C[C@@H](C)C/C=C/[C@H]2[C@H](O)[C@@](C)(O)[C@@H](C)[C@H]3[C@H](Cc4ccccc4)NC(=O)[C@@]312	inconclusive: 16.4 µM [inhibitor, single point]	–
CC(C)Oc1cccc(NC(=O)c2cccn(Cc3ccc4c(c3)OC(F)(F)O4)c2=O)c1	inconclusive: 29.1 µM [inhibitor, single point]	–
O=NN(CCCl)C(=O)NCCCl	inconclusive: 18.4 µM [inhibitor, single point] and inconclusive: 8.2 µM [inhibitor, partial curve]	–
COC(=O)C1=C(c2ccc(F)cc2OCc2ccccc2)C[C@@H]2CC[C@H]1N2C(=O)NCc1ccc(Cl)cc1	inconclusive: 29.1 µM [inhibitor, single point]	–
O=c1[nH]c(=O)n(Cc2ccc(F)cc2)c(O)c1C=Nc1ccc(Cl)cc1	inconclusive: 23.1 µM [inhibitor, partial curve]	–
CN(C)C1C(=O)C(C(N)=O)=C(O)[C@@]2(O)C(=O)C3=C(O)c4c(O)cccc4[C@@](C)(O)C3[C@H](O)C12 (stereo not given in full)	inactive	–
CC(C(=O)Nc1ccc(Br)cc1C(=O)c1ccccc1)N1CCOCC1 (stereo not given)	inactive	–
CC[C@H](C)[C@@H]1NC(=O)CNC(=O)c2csc(n2)[C@H](C(C)(C)O)OC(=O)C(C)(C)[C@H](CCCC(C)(Cl)Cl)OC(=O)c2csc1n2	active: 0.184 µM	–
C=CCN1C(=O)NC(=O)/C(=C/c2ccc(OC)c(CSc3ccccn3)c2)C1=O	inconclusive: 25.9 µM [inhibitor, single point]	–
O=C(CCCc1nc(-c2ccc(Cl)cc2)no1)NCC1CCCO1 (stereo not given)	active: 18.4 µM	–
COc1nc2ccccc2nc1N1CC1	active: 1.64 µM	–
O=C(O)Cc1ccc(OCCNC[C@H](O)c2ccccc2)cc1	inconclusive: 29.9 µM [inhibitor, single point]	–
Cc1ccc(-n2nc(C)cc2NC(=O)COc2cc(C)cc3oc(=O)c4c(c23)CCC4)cc1	active: 29.1 µM	–
O=c1[nH]c(=S)[nH]c(O)c1N=Nc1cc2c(cc1[N+](=O)[O-])OCO2	inconclusive: 23.1 µM [inhibitor, single point]	–
COC(=O)C1=C(c2ccc(-c3ccccc3)c(F)c2)C[C@@H]2CC[C@H]1N2C(=O)NCc1ccc(F)cc1	inconclusive: 16.4 µM [inhibitor, single point]	–
O=C1C=C2c3ccccc3CC(C(=O)O)C2CC1 (stereo not given)	inactive	–
CC(C)(C)C(=O)O[C@H]1CC[C@@]2(C)C(=CC(=O)C3C2CC[C@]2(C)C(=O)[C@H](O)CC32)C1 (stereo not given in full)	inconclusive: 20.6 µM [inhibitor, single point]	–
O=C1c2cccc3cccc(c23)C(=O)N1/N=C/c1c(O)n(-c2ccccc2)c(=O)[nH]c1=O	inactive	–
CC(=O)O[C@H]1CC[C@@]2(C)[C@H](C1)C(=O)C[C@H]1[C@@H]3CC[C@@H]4[C@@H](CN5C[C@@H](C)CC[C@H]5[C@@]4(C)O)[C@@H]3C[C@@H]12	inconclusive: 16.4 µM [inhibitor, partial curve, poor fit]	–
c1ccc(CCCCN2CCC(c3ccccc3)CC2)cc1	active: 11.9 µM and active: 18.4 µM	–

Structure (SMILES)	Potency	activity change, negative = growth inhibition
C=CCNC(=S)N1Cc2cc(Br)ccc2-n2nncc2C1	inactive	–
O=S(=O)(c1ccccc1)C1CN1c1c(F)c(F)c(F)c(F)c1F (stereo not given)	inconclusive: 13 µM [inhibitor, partial curve]	–
CCCCn1c(O)c(/C(CC)=N/N2CCCCC2c2cccnc2)c(=O)[nH]c1=S (stereo not given)	inconclusive: 20.6 µM [inhibitor, single point]	–
Cc1cccn2c(=O)c(/C=C(\C#N)c3nc4ccccc4s3)c(Oc3ccc(F)cc3)nc12	active: 20.6 µM	–
CCOc1ccccc1N1C(=O)NC(=O)/C(=C/c2ccc3c4c(cccc24)CC3)C1=O	inconclusive: 29.1 µM [inhibitor, single point]	–
Cn1c(O)c(C(=Nc2ccc(F)cc2)c2ccccc2)c(=O)n(C)c1=O	active: 9.2 µM	–
O=c1[nH]c(=O)n(CCc2ccccc2)c(O)c1C=NC1CC1	inactive	–
CCNC(=O)C1CCCN(Cc2ccc3ccccc3c2Br)CC1 (stereo not given)	inconclusive: 25.9 µM [inhibitor, single point]	–
CC(Cc1ccccc1)NCC(=O)Nc1cc(N(C)C)nc2ccccc12 (stereo not given)	inconclusive: 18.4 µM [inhibitor, single point]	–
Nc1c(C(=O)NCCc2ccccc2)c2nc3ccccc3nc2n1CCN1CCOCC1	active: 16.4 µM	–
CCC(=NC1CC1)c1c(O)n(C2CCCCC2)c(=O)[nH]c1=O	inconclusive: 29.1 µM [inhibitor, single point]	–
Cc1nc(-c2cccc(NC(=O)c3ccc(Cl)c(S(=O)(=O)N4CCCC4)c3)c2)cs1	active: 8.2 µM	–
CCOP(=O)(C#Cc1ccccc1)C(O)c1ccc(Br)cc1 (stereo not given)	inconclusive: 25.9 µM [inhibitor, single point]	–
CCN(c1ccccc1)S(=O)(=O)c1cccc(C(=O)NCc2cccnc2)c1	inconclusive: 29.1 µM [inhibitor, single point]	–
C[C@@H]1CCCCO[C@H](CN(C)Cc2ccccc2)[C@@H](C)CN([C@H](C)CO)C(=O)c2cc(NC(=O)c3ccccc3)ccc2O1	active: 18.4 µM	–
Cc1ccc(CN2CCN(Cc3ccccc3F)CC2)cc1	inactive	–
CCC(=O)Nc1cc(C(=O)N2CCC3(CC2)OCCO3)ccc1S(=O)(=O)c1ccc(C)cc1	inactive	–
CC(C)c1ccc(N2C(=O)NC(=O)/C(=C/c3cnc(-c4ccccc4)nc3)C2=O)cc1	inconclusive: 25.9 µM [inhibitor, single point]	–
CC1(C)CC(=O)C(C=NCCN2CCN(C(=O)Cc3ccc(Cl)cc3)CC2)=C(O)C1	inactive	–
COC(=O)C1=C(c2ccc(OCc3ccccc3)cc2)C[C@@H]2CC[C@H]1N2C(=O)NCc1ccc([N+](=O)[O-])cc1	active: 11.6 µM	–
CCn1cc(C(=O)NCCc2ccc(Cl)cc2)c(=O)c2cc(S(=O)(=O)N(C)C3CCCCC3)ccc21	inconclusive: 29.1 µM [inhibitor, single point]	–
